# ± gives the standard deviation of the averaged measurements. Whole data set: some 33,000 sequences, median “E-score (dimensionless, -0.5 to 0.5)” near -0.049, cut for the highest 2% near 0.37. This is one part of the list.
# Test system: T1, PmTbr T-box DNA-binding domain (GST fusion)
# T1 sequence: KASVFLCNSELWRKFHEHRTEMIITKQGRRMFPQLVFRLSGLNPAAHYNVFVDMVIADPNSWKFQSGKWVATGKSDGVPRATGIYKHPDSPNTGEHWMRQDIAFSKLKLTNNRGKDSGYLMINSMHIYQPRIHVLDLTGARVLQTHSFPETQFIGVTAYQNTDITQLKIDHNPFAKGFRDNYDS
# Experiment: PBM E-score of 8-mer (E-score (dimensionless, -0.5 to 0.5)); Tbr is Tbrain of the sea star Patiria miniata (Pm) or the sea urchin Strongylocentrotus purpuratus (Sp); higher = stronger binding preference; most listed sequences are background and not binding sites
# Conditions: the construct has about 5 more residues each side
# Procedure, shortened: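 Primer extension turned Universal Agilent oligonucleotide arrays double-stranded. They were incubated with 200 nM protein in PBS (pH 7.5); the protein was a GST-fused Tbr T-box DNA-binding domain expressed in BL21 E. coli at 20 °C and purified on glutathione. Every ungapped 8-mer was scored from the scanned, quantified probe intensities, and the Universal PBM Analysis Suite gave each an enrichment E-score averaged over duplicate arrays.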
row,Sequence,PBM E-score of 8-mer
1,AAGGTAGT,0.0368 ± 0.095
2,AACGCAGC,-0.0607 ± 0.025
3,CGCTTGAG,-0.0499 ± 0.011
4,AAGCGACA,0.195 ± 0.069
5,AGGTCCAT,-0.228 ± 0.022
6,CACTCACA,0.357 ± 0.012
7,TCGCTAAA,0.163 ± 0.043
8,ACTGTTCA,-0.0217 ± 0.047
9,CGATATCA,0.163 ± 0.074
10,AATCGCCG,-0.108 ± 0.0071
11,GCCGGTGA,-0.0636 ± 0.022
12,CACCGTCC,0.0123 ± 0.0021
13,AGGCCGCA,0.00458 ± 0.028
14,ATTATATA,-0.223 ± 0.0047
15,CCGACACA,0.37 ± 0.028
16,AGAGGCCA,-0.0561 ± 0.032
17,GACTCCTC,0.0454 ± 0.092
18,AGTGCGAG,0.405 ± 0.021
19,TCGTCTAA,-0.131 ± 0.027
20,CCGGGATC,-0.165 ± 0.025
21,ATCGTGGG,0.00341 ± 0.014
22,AGCCCGAT,-0.237 ± 0.035
23,TGTCCCAA,-0.0722 ± 0.014
24,ATAGTCTG,-0.119 ± 0.065
25,CGTATCTC,-0.17 ± 0.0074

row,Sequence,PBM E-score of 8-mer
1,AGCGGTAA,-0.198 ± 0.013
2,AGTTAGCA,0.32 ± 0.023
3,ACTATACG,-0.179 ± 0.053
4,ATAGGCAC,-0.0213 ± 0.017
5,ACAATAGG,-0.0435 ± 0.0018
6,ACCAGAGG,-0.00261 ± 0.038
7,AATGCATA,-0.2524 ± 0.0016
8,AATAAAGA,-0.265 ± 0.022
9,CACAGCCC,-0.112 ± 0.014
10,GTGAAGGA,0.0566 ± 0.032
11,CAAACCGA,-0.0313 ± 0.06
12,ATGAACAC,-0.0187 ± 0.0075
13,ACGAAAAT,-0.0398 ± 0.04
14,GCAAAGAA,-0.0862 ± 0.0042
15,AAAAATTT,-0.141 ± 0.23
16,AGGGCAAG,-0.2 ± 0.018
17,ATACGATG,0.0881 ± 0.0098
18,GCTTCGCA,0.308 ± 0.01
19,AACAGGGG,-0.142 ± 0.056
20,GAGCGAGC,-0.137 ± 0.0078
21,ACGTATGG,-0.157 ± 0.062
22,ACTTCAAG,-0.0859 ± 0.024
23,ACTGTCTA,-0.0335 ± 0.055
24,ACTCTCAG,0.0216 ± 0.0043
25,GACAAGCC,0.0605 ± 0.023

row,Sequence,PBM E-score of 8-mer
1,ACCCTGCT,-0.0648 ± 0.025
2,CGTCGACA,0.26 ± 0.031
3,CATACAAG,-0.118 ± 0.036
4,GGTCAGAA,-0.0528 ± 0.011
5,CCGGAAAC,-0.0846 ± 0.0042
6,GGAATTAA,-0.233 ± 0.027
7,CCATGAGC,-0.138 ± 0.16
8,CTCCGAAC,-0.0286 ± 0.028
9,ATGTGTTG,0.398 ± 0.008
10,AACCCGCA,-0.0105 ± 0.021
11,AGGCTTGG,-0.2 ± 0.011
12,GAGTCGAC,0.172 ± 0.046
13,AGAAAGTC,-0.162 ± 0.021
14,ATAAATCG,-0.135 ± 0.0078
15,ACATAGTC,-0.269 ± 0.02
16,ACCTGTGC,0.0647 ± 0.0069
17,GGTTGCTA,0.0637 ± 0.05
18,CGAGTGAG,0.202 ± 0.017
19,GTCTTCGA,-0.195 ± 0.043
20,AAGAGTGA,0.215 ± 0.044
21,TCTCCAGA,-0.0379 ± 0.022
22,AGAACACT,0.133 ± 0.04
23,GCGTCATA,0.141 ± 0.0021
24,CTACCAAA,-0.0753 ± 0.067
25,ATAGCGAG,0.19 ± 0.0089

row,Sequence,PBM E-score of 8-mer
1,GACAGGGC,-0.229 ± 0.021
2,GACTGGGA,-0.145 ± 0.039
3,ACTCAGCA,-0.151 ± 0.053
4,CTCGTCGC,0.113 ± 0.061
5,AGGTCAAA,-0.262 ± 0.028
6,CTCCCAAC,-0.0412 ± 0.0027
7,GTCGGATA,-0.0948 ± 0.041
8,ACTATATC,-0.0173 ± 0.047
9,ATGGAGAG,-0.202 ± 0.042
10,CGAGGCCA,-0.0794 ± 0.015
11,CATAGCTA,-0.279 ± 0.051
12,AATCTCCT,-0.175 ± 0.11
13,AGGCGACG,0.268 ± 0.0026
14,GGGGACCC,0.003 ± 0.018
15,CCCGTGAC,0.103 ± 0.042
16,TCAGTCAA,-0.209 ± 0.052
17,GATTGCGC,0.0372 ± 0.085
18,CGCGGAAC,-0.0285 ± 0.035
19,GGCGACAA,0.3812 ± 0.0024
20,ACAGCCAA,-0.0687 ± 0.018
21,CAGGGCGC,0.157 ± 0.1
22,AGTGTAAG,0.218 ± 0.015
23,CCCTAAGG,-0.197 ± 0.023
24,ACAAGGGC,-0.132 ± 0.063
25,AGCGGAGA,0.0469 ± 0.037

row,Sequence,PBM E-score of 8-mer
1,ATTTTGGC,-0.0578 ± 0.05
2,ACAGGCCA,-0.0816 ± 0.047
3,ACTGGTTA,-0.0355 ± 0.092
4,ACTTTAAC,-0.0192 ± 0.073
5,CAGTTGTA,-0.0126 ± 0.037
6,CGTCAATC,0.128 ± 0.052
7,ATATCCCA,-0.0578 ± 0.0039
8,AGAAGTAG,-0.186 ± 0.068
9,TACCCCGA,-0.0567 ± 0.03
10,GTACAAAA,-0.112 ± 0.013
11,ACTCAAGG,-0.0737 ± 0.044
12,CAACGTTC,-0.0494 ± 0.042
13,ATTTCACC,0.167 ± 0.058
14,CTTTCCTA,-0.235 ± 0.075
15,AGGTTGGA,-0.251 ± 0.0084
16,ATCGTGTG,0.217 ± 0.027
17,CTGTTGAA,-0.0551 ± 0.1
18,CCGTTGAC,0.207 ± 0.0037
19,ACCGTCTC,0.0641 ± 0.047
20,ACACCTAC,0.4763 ± 0.0017
21,ACCGACCA,-0.163 ± 0.05
22,ATCAAGGA,-0.254 ± 0.0053
23,AAAGATCA,-0.284 ± 0.037
24,ATGTAAAA,-0.21 ± 0.0095
25,CCTTTCCC,-0.132 ± 0.071

row,Sequence,PBM E-score of 8-mer
1,CCATCTCG,-0.0242 ± 0.099
2,CTGGTGTA,0.0817 ± 0.037
3,ACGATTGG,-0.125 ± 0.048
4,AGGGAGCG,-0.0241 ± 0.0087
5,ATGCCTTC,0.0114 ± 0.064
6,AGCGGTTA,0.0631 ± 0.03
7,ATATTCAT,-0.155 ± 0.012
8,CATACCGG,-0.0513 ± 0.024
9,AAAATCAG,-0.213 ± 0.033
10,ATGGATTG,-0.167 ± 0.075
11,CTCTTATC,-0.041 ± 0.029
12,CTTATCAA,0.0425 ± 0.075
13,CAAGGTAA,0.00125 ± 0.13
14,AGTACTAC,-0.315 ± 0.0088
15,GCTCTACA,-0.0571 ± 0.083
16,GGCTGGCA,-0.0305 ± 0.044
17,AGAGAAGC,-0.183 ± 0.09
18,AACCATCA,0.0805 ± 0.034
19,ATTCATAC,-0.137 ± 0.06
20,CTAAAAAA,0.03 ± 0.11
21,ATGAGTGC,-0.0415 ± 0.029
22,ATGCAAAT,-0.138 ± 0.073
23,GATTTTAA,-0.118 ± 0.047
24,ACAACAGG,0.165 ± 0.024
25,ACGATCTC,0.00949 ± 0.1

row,Sequence,PBM E-score of 8-mer
1,AAGAAAAC,-0.0889 ± 0.032
2,ATATCGAA,-0.109 ± 0.03
3,ATACGGAC,-0.0726 ± 0.013
4,CCTGGTTC,-0.0768 ± 0.014
5,CTATGTCC,-0.172 ± 0.017
6,AAGGTTCT,-0.0302 ± 0.087
7,CGCGAATA,0.327 ± 0.045
8,CAGAAATC,-0.01 ± 0.051
9,CAGACGTC,-0.134 ± 0.089
10,ACCCACAG,-0.00239 ± 0.035
11,CGATTTTA,-0.119 ± 0.058
12,CCGTGAAC,0.257 ± 0.04
13,AGAAAATC,0.13 ± 0.048
14,ACGATTTC,0.115 ± 0.0049
15,AGATCGAT,-0.271 ± 0.024
16,CAGCGGGA,-0.0262 ± 0.032
17,AGTCTCTG,-0.167 ± 0.028
18,ATCAAGTC,0.00964 ± 0.031
19,ACACACCG,0.125 ± 0.027
20,AGGAAAAA,-0.178 ± 0.041
21,GCCGCAAA,-0.108 ± 0.029
22,ACCCTAAA,-0.16 ± 0.096
